Experimental data: PubChem BioAssay AID1347073 (National Center for Advancing Translational Sciences (NCATS), 2019)
About 200 (0.44%) of roughly 45,000 compounds were called active. Inconclusive results (about 7%) are left out. The call rests on the fitted dose curve; in most records, active means well fitted activation curve with a large enough effect; inconclusive means small, poorly fitted or top-dose-only effect; inactive means no such curve, though single readings can be large or run the other way. The list shows a part of the results.

Experiment: qHTS of TDP-43 Inhibitors: NCGC Sytravon Library Screen; further: 0% is about no effect; nearly all actives have a fitted effect of over 55% in size
Settings: yeast TDP-43 toxicity rescue, BacTiter-Glo growth, 24 h; series mostly up to 46.1 µM; growth rescue (activation): at the top concentration
Procedure, shortened: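 TDP-43-expressing yeast, pregrown in raffinose, seeded at OD600 0.02 in galactose medium with compound for 24 hr at 30 deg C. Growth read by BacTiter-Glo luminescence, so rescue of toxicity appears as activation.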

Q: Which “growth rescue (activation)” value does the source give for `Cc1ccc(NC(=O)CN2C(=O)C(c3ccc(F)cc3)=NC23CCCCC3)c(C)c1` here?
A: inactive: 34.5%

Q: With `O=C(N/N=C/c1ccc(Cl)s1)c1ccccc1[N+](=O)[O-]` as the molecule, how does the “growth rescue (activation)” value read?
A: inactive: 15.8%

Q: Which “growth rescue (activation)” value does the source give for `O=C(Nc1ccc2c(c1)CCC2)c1cc2ccccc2o1` here?
A: inactive: 6.4%

Q: Which “growth rescue (activation)” value does the source give for `COc1ccc2cc(C(=O)N/N=C/c3sc4ccccc4c3O)ccc2c1` here?
A: inactive: 45.4%

Q: For `CCCCn1c(N)c(N(CC)C(=O)c2cccs2)c(=O)[nH]c1=O`, which “growth rescue (activation)” value is on record?
A: inactive: -6.75%

Q: Which “growth rescue (activation)” value does the source give for `O=C(/C=C/c1c(F)cccc1Cl)Nc1ncccn1` here?
A: inactive: 21.4%

Q: Which “growth rescue (activation)” value does the source give for `COc1ccc(C2NC(Cc3ccccc3)(C(=O)O)C3C(=O)N(c4ccccc4OC)C(=O)C23)cc1` (stereo unspecified) here?
A: inactive: 13.1%

Q: With `COc1ccc(NC(=S)N2CCC(N(C)CC3CCCO3)CC2)cc1Cl` (stereo unspecified) as the molecule, how does the “growth rescue (activation)” value read?
A: inactive: 10.8%

Q: Which “growth rescue (activation)” value does the source give for `CC(C)COP(=O)(c1ccc(N(C)C)cc1)C(Nc1ccccc1)c1ccccc1` (stereo unspecified) here?
A: inactive: -0.423%

Q: Which “growth rescue (activation)” value does the source give for `N#CC1(NC(=O)CSc2nc3ccccc3o2)CCCCC1` here?
A: inactive: -4.11%

Q: For `O=C(CSCCc1ccccn1)Nc1ccccn1`, which “growth rescue (activation)” value is on record?
A: inactive: -62.9%

Q: With `Cc1ccc(-n2c(CSc3nc(C)cc(C)n3)n[nH]c2=S)cc1` as the molecule, how does the “growth rescue (activation)” value read?
A: inactive: 1.46%

Q: For `Cc1nn(C)c(C)c1CN(C)C(=O)c1cc2nc(-c3ccco3)cc(C(F)(F)F)n2n1`, which “growth rescue (activation)” value is on record?
A: inactive: -7.85%

Q: For `COc1ccc(COC(=O)CNC(=O)C2CCCCC2)cc1F`, which “growth rescue (activation)” value is on record?
A: inactive: 17.3%

Q: Which “growth rescue (activation)” value does the source give for `CC(=O)c1ccc(Nc2nc(-c3cccnc3)cs2)cc1` here?
A: inactive: -6.64%

Q: For `O=C(CSc1nncn1-c1ccccc1)NC1CCCCC1`, which “growth rescue (activation)” value is on record?
A: inactive: 0.383%

Q: For `Cc1ccccc1NC(=O)C(Cl)=C(Cl)Cl`, which “growth rescue (activation)” value is on record?
A: inactive: 17.3%

Q: With `O=C(COC(=O)c1cccs1)NC12CC3CC(CC(C3)C1)C2` as the molecule, how does the “growth rescue (activation)” value read?
A: inactive: 6.5%

Q: With `CCCc1cc(=O)oc2c(CN(CC)CC)c(O)c(Cl)cc12` as the molecule, how does the “growth rescue (activation)” value read?
A: inactive: 3.56%

Q: With `NC(=O)CS(=O)(=O)c1ccc(Cl)cc1` as the molecule, how does the “growth rescue (activation)” value read?
A: inactive: 10%

Q: For `CN(C(=O)CSc1nc2ccccc2o1)C1CCS(=O)(=O)C1` (stereo unspecified), which “growth rescue (activation)” value is on record?
A: inactive: 19.9%

Q: With `O=C(COc1ccc(Cl)cc1)NCCCNC(=O)c1cnccn1` as the molecule, how does the “growth rescue (activation)” value read?
A: inactive: 2.94%

Q: For `O=C(NCc1ccc(-c2nc3ccccc3s2)cc1)c1ccc(Br)o1`, which “growth rescue (activation)” value is on record?
A: inactive: 24.8%

Q: For `Cn1cc(C=O)c(-c2ccc3c(c2)OCCCO3)n1`, which “growth rescue (activation)” value is on record?
A: inactive: 0.257%

Q: For `CCOC(=O)c1ccc(NC(=O)C2Cc3ccccc3CN2S(=O)(=O)c2ccc(Cl)cc2)cc1` (stereo unspecified), which “growth rescue (activation)” value is on record?
A: inactive: 1.11%

Q: For `Cc1cc(Br)ccc1NC(=O)CCS(=O)(=O)c1cccc2nonc12`, which “growth rescue (activation)” value is on record?
A: inactive: 5.57%

Q: With `CC1(c2ccc(Cl)cc2)NC(=S)N2C1NC(=S)N2c1ccccc1` (stereo unspecified) as the molecule, how does the “growth rescue (activation)” value read?
A: inactive: -3.25%

Q: Which “growth rescue (activation)” value does the source give for `CCc1nc2ccc(C(=O)N(C)CCCN(C)C)cn2c1N(C)C(=O)C1CCCCC1` here?
A: inactive: -6.32%

Q: With `Brc1ccc(-c2csc(NC3=NCCCCC3)n2)cc1` as the molecule, how does the “growth rescue (activation)” value read?
A: inactive: -1.6%

Q: For `Cc1ccc(N(C)S(=O)(=O)c2cccc(C(=O)OCC(=O)c3c(N)n(C)c(=O)n(C)c3=O)c2)cc1`, which “growth rescue (activation)” value is on record?
A: inactive: -6.28%

Q: Which “growth rescue (activation)” value does the source give for `Cc1cc(C=O)c(C)n1-c1ccc(N2CCCC2)c([N+](=O)[O-])c1` here?
A: inactive: -6.69%
